Experimental data taken from the supplement of paper PMC8728848.
The other results are listed elsewhere or left out.

What was measured:
Assay in all cases: glycan array binding signal (z-score within array); higher = stronger binding
Conditions in all cases: glycan notation: IUPAC condensed, linker removed
[1] = target: Fuc(a1-3)[Gal(b1-4)]GlcNAc
Outline: (§1)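 Glycan array data were curated from 3228 arrays in the Consortium for Functional Glycomics database and kept only where the protein sequence was available. Glycan names were converted to IUPAC-condensed notation, and columns mapping to the same glycan were averaged. The binding signal is a within-array Z-score, averaged across arrays of the same protein sequence at different concentrations or buffers and across linkers. Negative Z-scores can be read as non-binding.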

[2] = target: Fuc(a1-3)[Gal(b1-4)]GlcNAc(b1-4)Gal(b1-4)[Fuc(a1-3)]GlcNAc
Outline: as §1

[3] = target: Fuc(a1-3)[Gal(b1-4)]GlcNAc(b1-4)Gal(b1-4)[Fuc(a1-3)]GlcNAc(b1-4)Gal(b1-4)[Fuc(a1-3)]GlcNAc
Outline: as §1

[4] = target: Fuc(a1-3)[Gal3S(b1-4)]GlcNAc
Outline: as §1

[5] = target: Fuc(a1-3)[GalNAc(b1-4)]GlcNAc
Outline: as §1

Fuc(a1-4)GlcNAc = target: Fuc(a1-4)GlcNAc
Outline: as §1

Fuc(b1-3)GlcNAc = target: Fuc(b1-3)GlcNAc
Outline: as §1

Gal(a1-2)Gal = target: Gal(a1-2)Gal
Outline: as §1

Gal(a1-3)Gal = target: Gal(a1-3)Gal
Outline: as §1

Gal(a1-3)Gal(b1-3)GlcNAc = target: Gal(a1-3)Gal(b1-3)GlcNAc
Outline: as §1

Gal(a1-3)Gal(b1-4)Glc = target: Gal(a1-3)Gal(b1-4)Glc
Outline: as §1

Gal(a1-3)Gal(b1-4)GlcNAc = target: Gal(a1-3)Gal(b1-4)GlcNAc
Outline: as §1

[6] = target: Gal(a1-3)Gal(b1-4)[Fuc(a1-3)]GlcNAc
Outline: as §1

Gal(a1-3)GalNAc = target: Gal(a1-3)GalNAc
Outline: as §1

[7] = target: Gal(a1-3)[Gal(a1-4)]Gal(b1-4)GlcNAc
Outline: as §1

Gal(a1-4)Gal(b1-4)Glc = target: Gal(a1-4)Gal(b1-4)Glc
Outline: as §1

Gal(a1-4)Gal(b1-4)GlcNAc = target: Gal(a1-4)Gal(b1-4)GlcNAc
Outline: as §1

Gal(a1-4)GlcNAc = target: Gal(a1-4)GlcNAc
Outline: as §1

Gal(a1-6)Glc = target: Gal(a1-6)Glc
Outline: as §1

Gal(b1-2)Gal = target: Gal(b1-2)Gal
Outline: as §1

Gal(b1-3)Gal = target: Gal(b1-3)Gal
Outline: as §1

Gal(b1-3)GalNAc = target: Gal(b1-3)GalNAc
Outline: as §1

[8] = target: Gal(b1-3)GalNAc(b1-3)Gal(a1-4)Gal(b1-4)Glc
Outline: as §1

[9] = target: Gal(b1-3)GalNAc(b1-4)Gal(b1-4)Glc
Outline: as §1

[10] = target: Gal(b1-3)GalNAc(b1-4)[Neu5Ac(a2-3)]Gal(b1-4)Glc
Outline: as §1

Gal(b1-3)GlcNAc = target: Gal(b1-3)GlcNAc
Outline: as §1

[11] = target: Gal(b1-3)GlcNAc(b1-3)Gal(b1-4)Glc
Outline: as §1

[12] = target: Gal(b1-3)GlcNAc(b1-3)Gal(b1-4)GlcNAc
Outline: as §1

[13] = target: Gal(b1-3)[Fuc(a1-4)]GlcNAc
Outline: as §1

[14] = target: Gal(b1-3)[Fuc(a1-4)]GlcNAc(b1-3)Gal(b1-4)GlcNAc
Outline: as §1

[15] = target: Gal(b1-3)[Fuc(a1-4)]GlcNAc(b1-3)Gal(b1-4)[Fuc(a1-3)]GlcNAc
Outline: as §1

[16] = target: Gal(b1-3)[GlcNAc(b1-6)]GalNAc
Outline: as §1

[17] = target: Gal(b1-3)[Neu5Ac(a2-6)]GalNAc
Outline: as §1

[18] = target: Gal(b1-3)[Neu5Ac(a2-6)]GlcNAc(b1-6)Gal(b1-4)Glc
Outline: as §1

[19] = target: Gal(b1-3)[Neu5Ac(b2-6)]GalNAc
Outline: as §1

[20] = target: Gal(b1-4)GalNAc(a1-3)[Fuc(a1-2)]Gal(b1-4)GlcNAc
Outline: as §1

[21] = target: Gal(b1-4)GalNAc(b1-3)[Fuc(a1-2)]Gal(b1-4)GlcNAc
Outline: as §1

B1: CLEC7A (Homo sapiens), Q9BXN2 (protein)
chain: MEYHPDLENLDEDGYTQLHFDSQSNTRIAVVSEKGSCAASPPWRLIAVILGILCLVILVIAVVLGTMAIWRSNSGSNTLENGYFLSRNKENHSQPTQSSLEDSVTPTKAVKTTGVLSSPCPPNWIIYEKSCYLFSMSLNSWDGSKRQCWQLGSNLLKIDSSNELGFIVKQVSSQPDNSFWIGLSRPQTEVPWLWEDGSTFSSNLFQIRTTATQENPSPNCVWIHVSVIYDQLCSVPSYSICEKKFSM
glycan array binding signal (z-score) [1]: -0.765 | glycan array binding signal (z-score) [2]: 0.343 | glycan array binding signal (z-score) [3]: 0.278 | glycan array binding signal (z-score) [4]: 0.695 | glycan array binding signal (z-score) [5]: -0.149 | glycan array binding signal (z-score) (Fuc(a1-4)GlcNAc): -0.49 | glycan array binding signal (z-score) (Fuc(b1-3)GlcNAc): -0.081 | glycan array binding signal (z-score) (Gal(a1-2)Gal): -0.328 | glycan array binding signal (z-score) (Gal(a1-3)Gal): -0.468 | glycan array binding signal (z-score) (Gal(a1-3)Gal(b1-3)GlcNAc): -0.067 | glycan array binding signal (z-score) (Gal(a1-3)Gal(b1-4)Glc): -0.102 | glycan array binding signal (z-score) (Gal(a1-3)Gal(b1-4)GlcNAc): -0.977 | glycan array binding signal (z-score) [6]: 0.017 | glycan array binding signal (z-score) (Gal(a1-3)GalNAc): 0.056 | glycan array binding signal (z-score) [7]: 0.397 | glycan array binding signal (z-score) (Gal(a1-4)Gal(b1-4)Glc): -0.643 | glycan array binding signal (z-score) (Gal(a1-4)Gal(b1-4)GlcNAc): -0.565 | glycan array binding signal (z-score) (Gal(a1-4)GlcNAc): -0.747 | glycan array binding signal (z-score) (Gal(a1-6)Glc): -0.429 | glycan array binding signal (z-score) (Gal(b1-2)Gal): 1.31 | glycan array binding signal (z-score) (Gal(b1-3)Gal): 0.077 | glycan array binding signal (z-score) (Gal(b1-3)GalNAc): 0.042 | glycan array binding signal (z-score) [8]: -0.778 | glycan array binding signal (z-score) [9]: -0.395 | glycan array binding signal (z-score) [10]: -0.084 | glycan array binding signal (z-score) (Gal(b1-3)GlcNAc): 0.619 | glycan array binding signal (z-score) [11]: -0.359 | glycan array binding signal (z-score) [12]: 0.465 | glycan array binding signal (z-score) [13]: -0.31 | glycan array binding signal (z-score) [14]: -0.502 | glycan array binding signal (z-score) [15]: 0.106 | glycan array binding signal (z-score) [16]: -0.25 | glycan array binding signal (z-score) [17]: -0.478 | glycan array binding signal (z-score) [18]: -0.613 | glycan array binding signal (z-score) [19]: -0.132 | glycan array binding signal (z-score) [20]: -0.055 | glycan array binding signal (z-score) [21]: -0.328
